Measured values: patent US20260200997A1 (REPLIGEN, published 2026)
Positions count from the first letter of the chain named.

T1: Haptoglobin protein (UniProt P00738 19-160; P00738 162-406, limits assumed)
T1 construct: The background describes it as two alpha/beta dimers; also called Hp
T1 sequence (looked up) 1: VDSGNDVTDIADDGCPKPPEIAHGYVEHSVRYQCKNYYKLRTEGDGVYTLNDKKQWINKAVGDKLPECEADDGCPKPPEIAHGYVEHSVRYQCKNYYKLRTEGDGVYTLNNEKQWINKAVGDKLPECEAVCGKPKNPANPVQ
T1 sequence (looked up) 2: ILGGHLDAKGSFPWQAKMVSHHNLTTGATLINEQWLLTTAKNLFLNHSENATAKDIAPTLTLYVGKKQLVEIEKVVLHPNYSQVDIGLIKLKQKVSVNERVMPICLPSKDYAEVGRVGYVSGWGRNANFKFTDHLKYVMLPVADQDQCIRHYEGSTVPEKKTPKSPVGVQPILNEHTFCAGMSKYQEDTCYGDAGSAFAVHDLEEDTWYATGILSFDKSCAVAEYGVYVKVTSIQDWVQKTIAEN

B1: SEQ ID NO 31 (designed binder)
chain: MAQGTVDAKFDKELEEARAEIERLPNLTEWQRRYFIESLRIDPSTSAHLLAGAKRVNDKQAPKAAACGLNDIFEAQKIEWHEHHHHHH
modifications: biotinylated (Avitag system)
notes: 3 helical bundle ligand with Avitag and His tag; N-terminal Met may be absent; also called 31
B2: SEQ ID NO 37 (designed binder)
chain: B1 chain with W30H, Y34N, E37Q, S38A, I41N, T45G, H48S, G52I, R55G, V56W
modifications: biotinylated (Avitag system)
notes: 3 helical bundle ligand with Avitag and His tag; N-terminal Met may be absent; also called 37
B3: SEQ ID NO 43 (designed binder)
chain: MAQGTVDAKFDKELEEARAEIERLPNLTEVQRREFIDYLRLDPSQSAALLAIAKSWNDSQAPKAAACGLNDIFEAQKIEWHEHHHHHH
modifications: biotinylated (Avitag system)
notes: 3 helical bundle ligand with Avitag and His tag; N-terminal Met may be absent; also called 43
B4: SEQ ID NO 41 (designed binder)
chain: B3 chain with V30L, D37L, Y38A, L41I, Q45L, A48G, I52T, S55G, S59K
modifications: biotinylated (Avitag system)
notes: 3 helical bundle ligand with Avitag and His tag; N-terminal Met may be absent; also called 41
B5: SEQ ID NO 39 (designed binder)
chain: B3 chain with E34N, Y38H, Q45H, I52L, S55G, S59H
modifications: biotinylated (Avitag system)
notes: 3 helical bundle ligand with Avitag and His tag; N-terminal Met may be absent; also called 39
B6: SEQ ID NO 33 (designed binder)
chain: B3 chain with V30Q, E34N, D37A, Y38Q, Q45D, A48T, S55G
modifications: biotinylated (Avitag system)
notes: 3 helical bundle ligand with Avitag and His tag; N-terminal Met may be absent; also called 33
B7: SEQ ID NO 42 (designed binder)
chain: B3 chain with V30Q, E34S, Y38A, Q45E, A48S, S55G, S59R
modifications: biotinylated (Avitag system)
notes: 3 helical bundle ligand with Avitag and His tag; N-terminal Met may be absent; also called 42
B8: SEQ ID NO 34 (designed binder)
chain: B3 chain with V30L, E34N, Y38A, L41S, Q45V, A48G, I52V, S55T, S59R
modifications: biotinylated (Avitag system)
notes: 3 helical bundle ligand with Avitag and His tag; N-terminal Met may be absent; also called 34
B9: SEQ ID NO 35 (designed binder)
chain: B3 chain with V30L, E34N, D37T, Y38H, L41A, Q45D, A48S, S59K
modifications: biotinylated (Avitag system)
notes: 3 helical bundle ligand with Avitag and His tag; N-terminal Met may be absent; also called 35
B10: SEQ ID NO 40 (designed binder)
chain: B1 chain with W30I, Y34S, E37Q, S38A, I41G, T45S, H48G, G52V, V56W
modifications: biotinylated (Avitag system)
notes: 3 helical bundle ligand with Avitag and His tag; N-terminal Met may be absent; also called 40
B11: SEQ ID NO 36 (designed binder)
chain: B1 chain with W30H, E37F, I41N, T45A, H48I, G52A, V56H, K59H
modifications: biotinylated (Avitag system)
notes: 3 helical bundle ligand with Avitag and His tag; N-terminal Met may be absent; also called 36
B12: SEQ ID NO 32 (designed binder)
chain: B1 chain with W30H, E37T, S38A, I41Y, T45A, H48L, G52A, V56H, K59N
modifications: biotinylated (Avitag system)
notes: 3 helical bundle ligand with Avitag and His tag; N-terminal Met may be absent; also called 32
B13: SEQ ID NO 118 (designed binder)
chain: MVDAKFDKELEEARAEIERLPNLTEEQRRNFIQALRDDPSSSAGLLALAKHWNDKQAPKVDAKFDKELEEARAEIERLPNLTEEQRRNFIQALRDDPSSSAGLLALAKHWNDKQAPKVDAKFDKELEEARAEIERLPNLTEEQRRNFIQALRDDPSSSAGLLALAKHWNDKQAPKAAAHHHHHHC
modifications: conjugated to bromoacetate-derivatised agarose beads (Praesto Jetted A50)
notes: Three repeats of the 3 helical bundle domain in one chain with a C-terminal His tag and Cys; N-terminal Met may be absent; also called 118

Columns and labels:
Haptoglobin protein [1] = biological target: T1, Haptoglobin protein; test: BLI (ForteBio), biotinylated ligand on sensor, haptoglobin in solution, 1:1 fit
Procedure: (§1) Biotinylated ligands were immobilized on sensors and incubated with solutions containing Haptoglobin protein at various concentrations. The binding curves were fitted with a 1:1 binding model using the ForteBio software to determine the affinity and the resulting data is shown in the table below. As expected, all affinity agents bind to Haptoglobin protein with high affinity.

Haptoglobin protein [2] = biological target: T1, Haptoglobin protein; test: BLI; ligand held 8 h in 0.25 M NaOH, neutralised, against untreated ligand
Procedure: as §1
Ligands were incubated in 0.25 M NaOH for 8 hours and then neutralized. The binding of the NaOH treated ligands was measured as described in Example 1 and compared to untreated ligand. The binding retained was calculated according to the following formula: […]

serum albumin = biological target: T2, serum albumin (human, UniProt P02768 25-609); test: affinity column purification from Cohn Fraction V, eluate on reducing 4-20% Tris-glycine SDS-PAGE
Chain of serum albumin (P02768 25-609): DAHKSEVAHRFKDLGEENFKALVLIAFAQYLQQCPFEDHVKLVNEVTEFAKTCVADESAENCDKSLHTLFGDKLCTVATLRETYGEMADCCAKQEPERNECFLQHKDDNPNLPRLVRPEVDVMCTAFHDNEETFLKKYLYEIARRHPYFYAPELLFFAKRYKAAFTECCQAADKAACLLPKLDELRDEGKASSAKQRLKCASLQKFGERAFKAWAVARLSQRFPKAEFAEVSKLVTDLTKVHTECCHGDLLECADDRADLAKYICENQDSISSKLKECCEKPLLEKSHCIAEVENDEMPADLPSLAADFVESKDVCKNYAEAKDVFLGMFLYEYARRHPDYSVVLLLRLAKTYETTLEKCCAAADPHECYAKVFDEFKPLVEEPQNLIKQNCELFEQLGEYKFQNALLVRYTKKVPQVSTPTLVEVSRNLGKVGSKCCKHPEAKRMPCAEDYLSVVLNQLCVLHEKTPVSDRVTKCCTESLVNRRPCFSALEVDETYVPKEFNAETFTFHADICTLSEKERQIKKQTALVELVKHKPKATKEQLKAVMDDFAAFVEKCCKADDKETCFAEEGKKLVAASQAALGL
T2 construct: mature
Procedure: Packed columns were used to purify haptoglobin protein from Cohn Fraction V of human plasma with a measured titer of haptoglobin of 0.9 mg/mL. Resins were prepared from ligands corresponding to SEQ ID NO. 118.
Eluate fractions from each purification cycle were collected and purity was analyzed via SDS-PAGE. The data is shown in FIG. 5 and confirms high purity provided by the affinity agent, with a notable absence of serum albumin in the elution fraction. Purity was also assessed by analytical RP-HPLC. Percent purity was calculated by comparing peak area of haptoglobin protein to total area of all peaks in the analysis. The data are shown in FIG. 6 and confirm consistent purification performance across dozens of simulated cycles after exposure to >25 hours of exposure to 0.25 M sodium hydroxide. Yield was determined using analytical RP-HPLC by comparing peak area for haptoglobin in cycle #1 to all subsequent cycles. The data are show in FIG. 7 and confirm that the resin can be cleaned with NaOH and reused for multiple cycles.

Binder	Kd (Haptoglobin protein [1]) [nM]	Binding retained after 8 hour exposure to 0.25M NaOH (%) (Haptoglobin protein [2])	binding result (serum albumin)
B1	7	95	–
B2	< 1	90	–
B3	< 1	87	–
B4	< 1	91	–
B5	2	96	–
B6	< 1	87	–
B7	< 1	99	–
B8	< 1	88	–
B9	5	84	–
B10	1	87	–
B11	2	86	–
B12	3	84	–
B13	–	–	no binding
